Where “and” joins values, the source holds several entries; their conditions need not be identical. Identical values can stand only once. The list shows a part of the results. These are further read-outs of the screen, such as a control signal, another cell line or another target. No call is given for them.
What was measured:
Assay in all cases: Primary Screen for Target Class Profiling of Small Molecule Inhibitors of Methyltransferases
[1] = biological target: Glycine N-methyltransferase (Homo sapiens) (UniProt Q14749); conditions: purified enzyme, MTase-Glo SAH luminescence; measured here: GNMT inhibition; at 40 µM; stronger effect = lower value
Outline: (§1)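 Each enzyme was assayed with SAM and its substrate. SAH formation detected by MTase-Glo luminescence; single-point 40 uM screen[…].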

[2] = biological target: Guanidinoacetate N-methyltransferase (Homo sapiens) (UniProt Q14353); conditions: purified enzyme, MTase-Glo SAH luminescence; measured here: GAMT inhibition; at 40 µM; stronger effect = lower value
Outline: as §1

[3] = biological target: Histamine N-methyltransferase (Homo sapiens) (UniProt P50135); conditions: purified enzyme, MTase-Glo SAH luminescence; measured here: HNMT inhibition; at 40 µM; stronger effect = lower value
Outline: as §1

[4] = biological target: Nicotinamide N-methyltransferase (Homo sapiens) (UniProt P40261); conditions: purified enzyme, MTase-Glo SAH luminescence; measured here: NNMT inhibition; at 40 µM; stronger effect = lower value
Outline: as §1

[5] = biological target: Phenylethanolamine N-methyltransferase (Homo sapiens) (UniProt P11086); conditions: purified enzyme, MTase-Glo SAH luminescence; measured here: PNMT inhibition; at 40 µM; stronger effect = lower value
Outline: as §1
On the % scale 0 is the no-effect control and ±100 the full control effect.

SMILES | activity change, negative = inhibition [1] | activity change, negative = inhibition [2] | activity change, negative = inhibition [3] | activity change, negative = inhibition [4] | activity change, negative = inhibition [5]
COc1ccc(NC(=O)CCc2nnc3n(CCc4ccccc4)c(=O)c4ccccc4n23)cc1 | 0.431% | 0% | 5.69% | -3.75% | 0.335%
C=Cc1cc(O)cc2nc(-c3ccc(O)c(F)c3)oc12 | -72.1% | -43.9% | -76.1% | -54% | -57%
CC(C)OCCCn1c(=O)c2ccccc2n2c(=O)n(CC(=O)Nc3ccc(F)cc3)nc12 | 4.01% | 0.412% | 9.09% | -0.38% | 5.93%
Cc1cccc(CN2C(=O)c3cc4ccccc4n3CC2(C)C(=O)NCCCOC(C)C)c1 (stereo not given) | 2.68% | 4.49% | 0.83% | 0.641% | 1.67%
C[C@@H]1O[C@@H](O[C@H]2[C@H](O[C@H]3[C@H](O[C@H]4CC[C@@]5(CO)C(CC[C@]6(C)C5CC=C5C7CC(C)(C)C[C@@H](O)[C@]7(C)CC[C@]56C)C4(C)C)O[C@H](C(=O)O)[C@@H](O)[C@@H]3O)OC[C@@H](O)[C@@H]2O)[C@H](O)[C@H](O)[C@H]1O (stereo not given in full) | 5.89% | 8.47% | 7.44% | -8.92% | 10.3%
CCCn1c(=O)c2ccc(C(=O)NC(C)C)cc2n2c(=O)n(CC(=O)NCc3ccc(C)cc3)nc12 | 8.84% | 0% | 3.52% | 6.94% | 8.47%
COc1ccccc1CNC(=O)C1(C)Cn2nc(-c3ccccc3)cc2C(=O)N1c1ccc(C)cc1C (stereo not given) | 2.35% | 0% | 5.79% | 3.35% | -1.93%
Cn1c2c(c3ccccc31)C(C(=O)NCc1ccccc1)N(CCc1ccc(Cl)cc1)C(=O)CS2 (stereo not given) | 12.6% | 0.43% | 6.91% | 8.61% | 6.45%
COc1nccc(-c2c(-c3ccc(F)cc3)ncn2C2CCC(O)CC2)n1 (stereo not given) | 2.17% and 2.95% | 8.97% | 17.2% and 12.1% | -4.12% and -8.11% | 25.2% and 6.98%
CCCN1CCN(CCCNC(=O)c2cc3n(n2)CC(C)(C(=O)NCc2ccc(F)cc2)N(C)C3=O)CC1 (stereo not given) | -4.01% | 0% | -2.41% | -3.5% | -5.59%
Cc1ccc(C(c2sc3nc(-c4ccco4)nn3c2O)N2CCOCC2)cc1 (stereo not given) | – | 2.2% | – | -9.95% | 4.52%
C[C@@H]1CN(C(=O)CN2CCN(c3ncccn3)CC2)C[C@@]1(O)C1CCC1 | -7.22% | -6.59% | -3.7% | -14.2% | -9.85%
Cc1cc2c(cc3n2CC(C)(C(=O)NC2CCCCCC2)N(Cc2ccco2)C3=O)o1 (stereo not given) | -1.91% | 4.9% | 3.07% | -7.6% | 0.84%
CC(C)n1cc2cc(C(=O)O)sc2c1 | -5.58% | -0.463% | 1.53% | -0.643% | -0.806%
CC(C)COC(=O)N1CCCn2nc(-c3nc4ccccc4n3C)cc2C1 | -10.6% | -10.5% | -9.75% | -22.2% | -13.5%
COC1C=C([C@@H]2CC=C3[C@@]4(C)C(CC[C@]32C)[C@@]2(C)C=CC(=O)C(C)(C)C2C[C@H]4OC(C)=O)C(=O)O1 (stereo not given in full) | 1.69% | 7.23% | 6.2% | -7.59% | 1.46%
CC(C)OCCCn1c(=O)c2ccccc2n2c(SCc3cccc(Cl)c3)nnc12 | -7.58% | 0% | 2.57% | -10.2% | 2.96%
O=C1NC2(CCN(Cc3cncs3)C2)OCc2ccccc21 (stereo not given) | -12.4% | -9.09% | -2.58% | -7.63% | -5.22%
COc1ccc(CNc2nc3c(S(=O)(=O)c4ccc(Br)cc4)nnn3c3ccccc23)cc1 | -2.26% | 0.817% | 8.61% | -4.59% | -1.19%
O=c1cc(-c2ccccc2)oc2c(O)c(O)ccc12 | -19.8% | 9.05% | 4.29% | -6.78% | 5.1%

SMILES | activity change, negative = inhibition [1] | activity change, negative = inhibition [2] | activity change, negative = inhibition [3] | activity change, negative = inhibition [4] | activity change, negative = inhibition [5]
Cc1nccn1CCCC(=O)N1CC[C@](C)(O)[C@H](C)C1 | -0.88% | -0.73% | 0.821% | -4.02% | -0.171%
CCN(CC)CCOC(=O)C1(C2CCCCC2)CCCCC1 | -1.33% | 12.3% | 3.01% | -10.9% | 2.06%
CCNC(=O)N1CCC(NC(=O)c2cccc(CCC(C)(C)O)c2)CC1 | -3.31% | -5.45% | -1.26% | -5.69% | -6.17%
CC1(C)OC(=O)C(OCC2CC2)=C1c1ccc(S(C)(=O)=O)cc1 | -0.656% | -8.44% | 10.8% | -11.6% | 1.78%
CC(C)NC(=O)N1CCN(S(C)(=O)=O)[C@@H](C(=O)N[C@H](Cc2c[nH]c3ccccc23)C(N)=O)C1 | -5.24% | -10.7% | -1.8% | -14% | -2.46%
COc1cc2c(Nc3ccc(Cl)c(Cl)c3F)ncnc2cc1OCC1C[C@@H]2CN(C)C[C@@H]2C1 (stereo not given in full) | -50.2% | – | -83% | – | –
CCCc1cc(C)[nH]c(=O)c1CNC(=O)c1cc(-c2ccc(N3CCN(C(C)C)CC3)nc2)cc2c1cnn2C(C)C | -4.15% | 21.4% | -25.8% | -29.7% | 5.83%
COC(=O)C1=COC(OC2OC(CO)C(O)C(O)C2O)C2C1CC(OC(=O)C(O)CC(=O)O)C2C (stereo not given) | 4.07% | 6.08% | 9.76% | -3.69% | 5.09%
O=C(CN1C(=O)NC2(CCCCC2)C1=O)Nc1ccc2c(c1)OCCO2 | -7.44% | -9.96% | -5.02% | -14.8% | 4.8%
COc1cccc(-c2cn(-c3ccc(CCN4CCC(O)CC4)cc3)c3ncnc(N)c23)c1 | -79.6% | -69.5% | -89% | -93.7% | -86.4%
COc1ccccc1N1CCN(S(=O)(=O)c2ccc3[nH]c4c(c3c2)CCCC4)CC1 | -4.1% | 2.91% | -1.79% | -4.48% | 0.922%
C#C[C@]1(O)CC[C@H]2[C@@H]3CCC4=C/C(=N/O)CC[C@@H]4[C@H]3CC[C@@]21CC | -4.38% | 6.79% | 3.22% | -25.1% | -4.7%
Cc1cc(CN(C)C(=O)c2cc(COc3ccc(F)cc3F)on2)n[nH]1 | -0.194% | 1.17% | 2.35% | -0.991% | 0.927%
CC1(C(=O)NC2CCCCC2)Cn2c(ccc2-c2ccccc2)C(=O)N1CCCN1CCOCC1 (stereo not given) | 10.4% | 1.11% | 7.54% | 7.46% | 3.3%
C[N+]1(C)CCC(OC(=O)C(c2ccccc2)c2ccccc2)CC1 | 3.41% | 6.79% | 14.9% | -7.49% | 2.07%
Cc1ccc(C2c3cccn3-c3sc4c(c3CN2C(=O)Nc2ccccc2F)CCCC4)cc1 (stereo not given) | -6.9% | -11.4% | -3.31% | -13.9% | -4.65%
CC(C)C(=O)N1CCN(CCn2nc3n(c2=O)CCCC3)CC1 | 95.7% | -10.7% | -3.6% | -11.1% | 5.43%
COc1ccc(-c2nc(C(C)C)nc3c2CCN([S+](=O)([O-])c2c(C)noc2C)CC3)cc1 | 1.3% | -1.15% | -0.215% | -0.025% | 5.34%
COc1nc2nc(CCc3ccccc3)n(C)c2cc1-c1cncnc1 | -12% | -3.79% | -6.35% | -24.7% | -13.7%
Cc1nc2c(c(-c3ccc(Cl)cc3)n1)CCN(C(=O)Cc1cccc(Cl)c1)CC2 | -9.48% | -5.82% | -2.2% | -12.2% | -0.357%

SMILES | activity change, negative = inhibition [1] | activity change, negative = inhibition [2] | activity change, negative = inhibition [3] | activity change, negative = inhibition [4] | activity change, negative = inhibition [5]
CCC(=O)N1CCC(n2nccc2NC(=O)Nc2ccccc2Cl)CC1 | -3.77% | -4.52% | -1.93% | -8.59% | -3.33%
O=C1C[C@H]2CC[C@@H](CN1)N2Cc1ccc(OCc2ccccc2)cc1 | -7.16% | -7.89% | -4.82% | -10.9% | -5.9%
NC(=O)c1ccc(N(C(N)=O)c2c(F)cccc2F)nc1-c1ccc(F)cc1F | -3.53% | -4.82% | 1.76% | -17.1% | -12.4%
COc1cc2occc2c(O[C@@H]2O[C@H](CO)[C@@H](O)[C@H](O)[C@H]2O)c1CCC(=O)O | 0% | 7.14% | 10.2% | -6.4% | 2%
CC1(C(=O)NCc2ccccc2Cl)Cn2cnc(C(=O)NCCc3cccs3)c2C(=O)N1C1CC1 (stereo not given) | 1.92% | 0.502% | 5.84% | -2.6% | 3.27%
COc1ccc(C(=O)Nc2ccc([C@H]3OCC(=O)N[C@@H]3CO)cc2)cc1 | -3.71% | -5.49% | -1.6% | -7.84% | -3.65%
Cc1ccc(Cn2nc3n(CCc4ccccc4)c(=O)c4ccccc4n3c2=O)cc1 | -1.2% | -0.46% | 6.37% | 2.46% | 0.001%
O[C@@H]1CO[C@H]2[C@@H]1OC[C@@H]2n1nnnc1SCc1ccco1 | -7.83% | -0.492% | -4.37% | -7.01% | -21.3%
C=CC1(C)C=C2CCC3C(C)(C)C(O[C@@H]4O[C@@H](CO)[C@H](O)[C@H]4O)CCC3(C)C2CC1O[C@@H]1O[C@H](C)[C@H](O)[C@H](O)[C@H]1O (stereo not given in full) | 2.12% | -0.251% | 4.84% | -12.4% | 1.07%
CCOc1ccc(N2C(=O)c3cc(C(C)(C)C)nn3CC2(C)C(=O)NC2CCCCC2)cc1 (stereo not given) | -4.78% | -2.41% | -1.04% | 4.77% | -0.729%
CCn1ccnc1CN1CCC(Oc2ccccc2OC)(C(=O)O)CC1 | -2.58% | -9.33% | -2.56% | -8.87% | -4.1%
CC(=O)c1ccc(C(=O)N[C@H]2COC[C@H]2Cc2cc(C)no2)s1 | -3.47% | -3.9% | -1.86% | -3.7% | -0.241%
COCCN1C(=O)c2c(-n3cccc3)c3cc(C)ccc3n2CC1(C)C(=O)NC1CCCCC1 (stereo not given) | -6.49% | 0.854% | -5.23% | -18.5% | -6.2%
Cc1cc2c(c(=O)o1)C=C1CC[C@H]([C@H](C)Cn3cnc(=N)c4[nH]cnc43)C[C@@H]1O2 | -28.4% | 0.652% | -40.3% | -47.1% | -15.7%
O=C(NCCC1=CCCCC1)c1c(-c2cncnc2)cc(=O)n2c1CCCC2 | -3.62% | -2.47% | -5.01% | -7.36% | -19.1%
Oc1cc(O)c2c(c1)O[C@H](c1ccc(O)c(O)c1)[C@@H](O)C2 | -15.2% | 6.65% | -1.14% | -3.64% | 5.55%
CCc1ccccc1N1C(=O)c2cc(C(C)(C)C)nn2CC1(C)C(=O)NCc1ccccc1 (stereo not given) | 3.62% | 1.1% | 4.15% | 3.97% | -2.6%
Cc1cc(C)cc(N2C(=O)c3cc(C(C)(C)C)nn3CC2(C)C(=O)NCc2ccccc2)c1 (stereo not given) | 0.779% | 4.88% | 2.71% | -10.5% | -2.79%
C=CC(=O)N1CC(N2CCN(C(=O)CNc3cc(C4CC4)c(Cl)cc3O)CC2)C1 | -4.24% | -1.34% | 2.38% | -14.9% | -0.249%
